Each structure is given as a SMILES string. Some of the results follow.

One assay deals with HSkMC (human skeletal muscle cells). The assay is described as follows: cytotoxicity call (relative viability < 0.9). Particulars: 10 µM.
For `C[C@H](CO)N1C[C@H](C)[C@H](CN(C)S(=O)(=O)c2cn(C)cn2)Oc2ccc(NS(C)(=O)=O)cc2C1=O`, the cytotoxicity call was “inactive”.

`C[C@@H]1CN([C@H](C)CO)C(=O)c2cc(NC(=O)C3CCCCC3)ccc2O[C@@H](C)CCCCO[C@@H]1CN(C)Cc1ccccc1`: the cytotoxicity call is “inactive”.

For the compound `Cc1ccc(S(=O)(=O)N(C)C[C@H]2Oc3c(NS(=O)(=O)c4cn(C)cn4)cccc3C(=O)N([C@@H](C)CO)C[C@@H]2C)cc1`, the cytotoxicity call is “inactive”.

As for `C[C@@H]1CN([C@H](C)CO)C(=O)c2cc(NS(=O)(=O)c3ccc(F)cc3)ccc2O[C@H]1CN(C)S(=O)(=O)c1cn(C)cn1`, the cytotoxicity call is “inactive”.

For `COc1ccc(S(=O)(=O)N(C)C[C@H]2Oc3c(NC(=O)Nc4c(C)noc4C)cccc3C(=O)N([C@H](C)CO)C[C@H]2C)cc1`, the cytotoxicity call was “inactive”.

As to `N#Cc1cccnc1Oc1ccccc1`, the cytotoxicity call is “inactive”.

For `O=C(C[C@@H]1C=C[C@H](NC(=O)c2cccnc2)[C@H](CO)O1)NCCN1CCCCC1`, the cytotoxicity call is “inactive”.

For the compound `COc1ccc2c3c(n(c2c1)C)[C@@H](CO)N(Cc1ccccc1)C[C@]13CCN(CC1)C(=O)Nc1cccc(c1)F`, the cytotoxicity call is “inactive”.

In the case of `C[C@@H]1CN([C@H](C)CO)C(=O)c2cc(NS(=O)(=O)c3cn(C)cn3)ccc2O[C@H]1CN(C)C(=O)Nc1ccc2c(c1)OCO2`, the cytotoxicity call is “inactive”.

The test system of a further assay is HepG2. The assay is described as follows: cytotoxicity call (relative viability < 0.9). Particulars: 10 µM.
With `COCC(=O)N(C)C[C@H]1Oc2cc(-c3ccc(OC)cc3)ccc2S(=O)(=O)N([C@H](C)CO)C[C@@H]1C`, the cytotoxicity call was “inactive”.

Turning to `Cc1ncc([N+](=O)[O-])n1CC(C)O` (stereo not drawn), the cytotoxicity call was “inactive”.

For the compound `C[C@H](CO)N1C[C@H](C)[C@H](CN(C)C(=O)Cc2ccccc2)OCCCC[C@H](C)Oc2ccc(NC(=O)C3CCCCC3)cc2C1=O`, the cytotoxicity call is “inactive”.

On to `COc1ccc(S(=O)(=O)Nc2ccc3c(c2)C(=O)N([C@@H](C)CO)C[C@@H](C)[C@H](CN(C)Cc2ccc4c(c2)OCO4)OCCCC[C@H](C)O3)cc1`, for which the cytotoxicity call was “inactive”.

For the compound `C[C@@H]1CN([C@@H](C)CO)C(=O)c2cccc(NC(=O)NC3CCCCC3)c2O[C@H]1CN(C)Cc1ccc(-c2ccccc2)cc1`, the cytotoxicity call is “inactive”.

With `COc1ccc(S(=O)(=O)N(C)C[C@H]2Oc3ccc(NS(C)(=O)=O)cc3C(=O)N([C@H](C)CO)C[C@@H]2C)cc1`, the cytotoxicity call is “inactive”.

With `O=C(C[C@@H]1CC[C@@H]2[C@H](COC[C@H](O)CN2S(=O)(=O)c2ccc(Cl)cc2)O1)NCCN1CCCC1`, the cytotoxicity call was “inactive”.

Turning to `C[C@@H]1CCCCO[C@@H](CN(C)C(=O)Nc2cccc3ccccc23)[C@H](C)CN([C@H](C)CO)C(=O)c2cc(NC(=O)Nc3ccc(F)cc3)ccc2O1`, the cytotoxicity call was “inactive”.

In the case of `C[C@@H]1CN([C@@H](C)CO)C(=O)Cc2cc(NC(=O)Cc3ccccc3)ccc2O[C@H]1CN(C)S(=O)(=O)c1ccc(F)cc1`, the cytotoxicity call was “inactive”.

For the compound `C[C@H]1CN([C@@H](C)CO)C(=O)c2cc(Br)cnc2O[C@@H]1CN(C)C(=O)Nc1ccc(F)cc1`, the cytotoxicity call was “inactive”.

For `C[C@@H]1CN([C@H](C)CO)C(=O)CCCn2cc(nn2)CO[C@@H]1CN(C)Cc1cccc2c1OCCCO2`, the cytotoxicity call is “inactive”.

As to `C[C@@H]1CCCCO[C@H](CN(C)C(=O)Nc2ccc(F)cc2)[C@H](C)CN([C@@H](C)CO)C(=O)c2cc(NS(=O)(=O)c3cccs3)ccc2O1`, the cytotoxicity call was “inactive”.

For `Cc1ccc(S(=O)(=O)N(C)C[C@H]2OCCCC[C@H](C)Oc3ccc(NC(=O)Nc4ccc(C(F)(F)F)cc4)cc3C(=O)N([C@H](C)CO)C[C@H]2C)cc1`, the cytotoxicity call is “inactive”.

Consider `CCc1c(C)[nH]c(=S)c(C#N)c1C`, for which the cytotoxicity call was “inactive”.

`C[C@@H]1CN([C@H](C)CO[Si](C)(C)C(C)(C)C)C(=O)c2cc(NC(=O)C3CCCCC3)ccc2O[C@H]1CN(C)C(=O)c1ccc(Cl)cc1`: the cytotoxicity call was “inactive”.

Regarding `Cc1noc(C)c1NC(=O)Nc1cccc2c1O[C@H](CN(C)S(C)(=O)=O)[C@H](C)CN([C@@H](C)CO)C2=O`, the cytotoxicity call is “inactive”.

As for `OCc1ccccc1-c1ccccc1`, the cytotoxicity call was “inactive”.

Regarding `C[C@@H]1CN([C@H](C)CO)C(=O)c2cc(NS(=O)(=O)c3cn(C)cn3)ccc2O[C@@H](C)CCCCO[C@@H]1CN(C)S(=O)(=O)c1ccccc1`, the cytotoxicity call was “inactive”.

As for `C[C@@H]1CN([C@H](C)CO)C(=O)c2cc(NC(=O)Nc3cccc4ccccc34)ccc2O[C@@H](C)CCCCO[C@@H]1CN(C)Cc1ccc2c(c1)OCO2`, the cytotoxicity call was “active”.

Turning to `C[C@H](CO)N1C[C@H](C)[C@H](CN(C)CC2CC2)Oc2c(NS(=O)(=O)c3cn(C)cn3)cccc2C1=O`, the cytotoxicity call was “inactive”.

With `C[C@H](CO)N1C[C@H](C)[C@@H](CN(C)C(=O)c2ccc3c(c2)OCO3)Oc2cc(C#Cc3ccccc3F)ccc2S1(=O)=O`, the cytotoxicity call was “inactive”.

With `C[C@@H]1CCCCO[C@H](CN(C)Cc2ccc(Cl)c(Cl)c2)[C@@H](C)CN([C@H](C)CO)C(=O)c2cc(NS(=O)(=O)c3cccs3)ccc2O1`, the cytotoxicity call was “active”.

On to `C[C@H](CO)N1C[C@H](C)[C@H](CN(C)C(=O)CN2CCOCC2)Oc2ncc(C#CCN(C)C)cc2C1=O`, for which the cytotoxicity call was “inactive”.

Take `CC(C)NC(=O)N(C)C[C@@H]1Oc2ccc(NS(=O)(=O)c3ccc(Cl)cc3)cc2C(=O)N([C@@H](C)CO)C[C@H]1C`: the cytotoxicity call is “inactive”.

On to `C[C@H]1CN([C@@H](C)CO)C(=O)c2cccc(NC(=O)C3CCOCC3)c2O[C@@H]1CN(C)S(=O)(=O)c1ccc(Cl)cc1`, for which the cytotoxicity call was “inactive”.

`C[C@@H]1CCCCO[C@@H](CN(C)CC2CCCCC2)[C@@H](C)CN([C@H](C)CO)C(=O)c2cc(NS(=O)(=O)c3ccc(F)cc3)ccc2O1`: the cytotoxicity call was “active”.

In the case of `O=C(N[C@@H]1C=C[C@@H](CC(=O)N2CCOCC2)O[C@H]1CO)c1ccccn1`, the cytotoxicity call is “inactive”.

Take `COc1cc(-c2coc3cc(OC4OC(CO)C(O)C(O)C4O)c(OC)c(O)c3c2=O)cc(O)c1OC` (stereo not drawn): the cytotoxicity call was “active”.

`Cn1cc(N2C[C@]3(CCN(S(C)(=O)=O)C3)CC2=O)cn1`: the cytotoxicity call was “inactive”.

As for `CS(=O)(=O)N1CCC2(CC1)CN(CCn1cccn1)C(=O)CO2`, the cytotoxicity call was “inactive”.

With `C[C@H](CO)N1C[C@H](C)[C@H](CN(C)S(=O)(=O)c2cn(C)cn2)Oc2ccc(NS(C)(=O)=O)cc2C1=O`, the cytotoxicity call is “inactive”.

Turning to `C[C@@H]1CN([C@H](C)CO)C(=O)c2cc(NC(=O)C3CCCCC3)ccc2O[C@@H](C)CCCCO[C@@H]1CN(C)Cc1ccccc1`, the cytotoxicity call is “inactive”.

With `Cc1ccc(S(=O)(=O)N(C)C[C@H]2Oc3c(NS(=O)(=O)c4cn(C)cn4)cccc3C(=O)N([C@@H](C)CO)C[C@@H]2C)cc1`, the cytotoxicity call was “inactive”.

In the case of `C[C@@H]1CN([C@H](C)CO)C(=O)c2cc(NS(=O)(=O)c3ccc(F)cc3)ccc2O[C@H]1CN(C)S(=O)(=O)c1cn(C)cn1`, the cytotoxicity call was “active”.

As for `COc1ccc(S(=O)(=O)N(C)C[C@H]2Oc3c(NC(=O)Nc4c(C)noc4C)cccc3C(=O)N([C@H](C)CO)C[C@H]2C)cc1`, the cytotoxicity call was “inactive”.

In the case of `N#Cc1cccnc1Oc1ccccc1`, the cytotoxicity call is “inactive”.

Consider `O=C(C[C@@H]1C=C[C@H](NC(=O)c2cccnc2)[C@H](CO)O1)NCCN1CCCCC1`, for which the cytotoxicity call is “inactive”.

In the case of `COc1ccc2c3c(n(c2c1)C)[C@@H](CO)N(Cc1ccccc1)C[C@]13CCN(CC1)C(=O)Nc1cccc(c1)F`, the cytotoxicity call is “inactive”.

With `C[C@@H]1CN([C@H](C)CO)C(=O)c2cc(NS(=O)(=O)c3cn(C)cn3)ccc2O[C@H]1CN(C)C(=O)Nc1ccc2c(c1)OCO2`, the cytotoxicity call is “inactive”.

Source of the values: the antibiotic and cytotoxicity screens of Wong et al. (2023).
